Measurements: PMC6919601, “Identification of Plasmodium dipeptidyl aminopeptidase allosteric inhibitors by high throughput screening” (PLoS ONE, 2019)
Out of some 110,000 compounds screened, about 230 (0.21%) showed an effect of 50% or more. The list shows a part of the results.

Molecular target: DPAP1 (Plasmodium falciparum, UniProt Q8IIJ9)
Assay: primary screen, percent inhibition; read by cleavage of a fluorogenic dipeptide substrate; higher = more effect of the substance
Set-up: species or system P. falciparum D10 trophozoite lysates; single well
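Further: 30 min substrate incubation versus DMSO and 10 µM JCP410 controls.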

Chain of DPAP1 (Q8IIJ9 whole entry, looked up): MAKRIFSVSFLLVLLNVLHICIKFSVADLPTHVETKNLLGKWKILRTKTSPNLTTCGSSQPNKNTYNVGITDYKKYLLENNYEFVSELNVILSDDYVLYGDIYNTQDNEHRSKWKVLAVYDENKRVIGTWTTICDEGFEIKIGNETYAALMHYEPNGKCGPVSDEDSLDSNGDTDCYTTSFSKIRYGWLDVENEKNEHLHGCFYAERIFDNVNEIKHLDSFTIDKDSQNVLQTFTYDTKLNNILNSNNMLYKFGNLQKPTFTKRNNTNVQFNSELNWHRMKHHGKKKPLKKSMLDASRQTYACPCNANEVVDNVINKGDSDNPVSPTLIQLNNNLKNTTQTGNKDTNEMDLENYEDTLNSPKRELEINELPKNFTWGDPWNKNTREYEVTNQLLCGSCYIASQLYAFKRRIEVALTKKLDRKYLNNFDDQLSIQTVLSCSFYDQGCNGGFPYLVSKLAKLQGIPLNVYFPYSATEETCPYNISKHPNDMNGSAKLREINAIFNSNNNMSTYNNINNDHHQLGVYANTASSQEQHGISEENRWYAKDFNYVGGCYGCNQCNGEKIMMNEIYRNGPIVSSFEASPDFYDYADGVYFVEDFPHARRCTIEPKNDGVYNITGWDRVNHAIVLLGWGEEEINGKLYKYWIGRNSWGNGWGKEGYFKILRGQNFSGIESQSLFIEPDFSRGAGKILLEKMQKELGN

Compound | % Inhibition @ 10 uM [%]
Cc1ccc(C)c(CN(C)C2CCN(C)CC2)c1 | -1.86
Cn1c(=O)c2c(nc(N3CCCCC3)n2C)n(C)c1=O | -6.83
Cc1cc(O)n(-c2ccc(S(=O)(=O)O)cc2)n1 | -5.51
C=C(C)CNC(=S)Nc1nccs1 | 0.774
COc1cc(/C=C2\C(=N)N3N=C(S(C)(=O)=O)SC3=NC2=O)cc(OC)c1OC | -1.58
N#CCCN1CCN(S(=O)(=O)c2ccc(S(=O)(=O)N3CCOCC3)cc2)CC1 | -1.82
Cc1c(CCC(=O)NCCc2ccc(F)cc2)c(=O)oc2c(C)c(O)ccc12 | -4.39
Cc1ccccc1NC(=O)c1cccc(S(=O)(=O)Nc2cccc([N+](=O)[O-])c2)c1 | -1.74
Nc1ccc(Oc2ccc(C(=O)O)cc2)cc1 | 2.94
CSCCOC(=O)C1=C(C)NC(=O)NC1c1cccc(Br)c1 (stereo not drawn) | -0.582
COc1ccccc1C(=O)NC1CCN(c2ncccn2)CC1 | -2.88
Nc1cc(=O)n2c(C(=O)Nc3ccccc3)nn(-c3ccccc3)c2n1 | -5.26
COc1ccc(C(=O)N2CCN(Cc3ccc(Cl)cc3)CC2)cc1 | -1.88
Cc1c(-c2ccccc2)nc2ccccc2c1C(=O)NC1CC1 | 6.37
Cc1ccccc1NC(=O)c1ccc(S(=O)(=O)N2CCOCC2)c(C)c1 | 2.33
CC(NC(=O)/C(=C/c1ccccc1)NC(=O)c1cccc(Br)c1)C(=O)O (stereo not drawn) | 3.89
COC(=O)c1ccc(N2C(=O)c3cccc(Br)c3C2=O)cc1O | -0.261
COc1ccc(S(=O)(=O)Nc2cccc(Cl)c2Cl)cc1OC | -1.96
C=CCOc1ccc(/C=C2/C(=N)N3C(=NC2=O)SN=C3S(=O)(=O)CC)cc1OC | 1.85
CCc1ccc(CN(C(=O)c2cc(=O)c3cc(C)cc(C)c3o2)C2CCS(=O)(=O)C2)cc1 (stereo not drawn) | -1.47
N=C1/C(=C\c2coc3ccccc3c2=O)C(=O)N=C2SC(C3CCCCC3)=NN12 | -2.19

Compound | % Inhibition @ 10 uM [%]
O=C(NCc1cccnc1)c1cccc(COc2cccc3ccccc23)c1 | 3.72
O=C(C(c1ccccc1)c1ccccc1)N1CCOCC1 | 0.878
Cc1cccnc1NC(=O)c1ccccc1C(=O)O | -6.6
CCN(C(=O)COc1cc(C)ccc1C)c1ccccc1 | 16.2
O=C(CN1C(=O)S/C(=C\c2cc3c(cc2Cl)OCO3)C1=O)N1CCOCC1 | 12.2
O=C(Nc1ccc(Br)cn1)c1cccc2c1-c1ccccc1C2=O | -1.72
COC(=O)/C(C#N)=C/c1ccc(OC)c(OC)c1OC | -5.64
CC(=O)Nc1ccc(S(=O)(=O)Nc2ccc(-c3cn4cccnc4n3)cc2)cc1 | -1.63
O=C(Nc1ccc([N+](=O)[O-])cc1Cl)c1ccc([N+](=O)[O-])cc1 | -0.771
CNS(=O)(=O)c1cn(CC(=O)Nc2cccc(C)n2)cc1S(=O)(=O)NC | 1.91
CCOC(=O)C1CCN(CC2CC3C=CC2C3)CC1 (stereo not drawn) | -5.65
CCC(Oc1ccccc1)C(=O)Nc1ccccc1Cl (stereo not drawn) | -7.08
Cc1ccc2nc(NCc3ccc(C(=O)O)cc3)c3nnnn3c2c1 | 1.86
Cc1onc(-c2ccccc2)c1C(=O)N1CCCN(C(=O)c2c(-c3ccccc3)noc2C)CC1 | 0.83
O=C(CCc1nnc2ccc(N3CCOCC3)nn12)NCc1ccccc1Cl | -8.38
Cc1ccc(O)c2nc(/C=C/c3ccccc3[N+](=O)[O-])ccc12 | -4.96
COc1ccc(C2(O)C(C)CCCC2C)cc1 (stereo not drawn) | -6.58
CC(C)C[C@H](NC(=O)c1ccc(-c2cnc(N=C(N)N)s2)cc1)C(=O)N[C@@H](Cc1cccnc1)C(N)=O | 3.19
Cn1ncc2c(NCCc3ccccc3)ncnc21 | -0.247
Cc1ccc(OCCCCCCN2CCNCC2)cc1 | -5.54
Cc1csc(NC(=O)CCc2c(C)nc3cc(-c4ccc(Cl)cc4)nn3c2C)n1 | 4.54

Compound | % Inhibition @ 10 uM [%]
O=C(/C=C/c1ccc2c(c1)OCO2)c1ccccn1 | -1.77
CCOC(=O)C1=C(Cn2cnc3ccccc32)NC(=O)NC1c1cc(C)ccc1C (stereo not drawn) | 3.36
CCCO/C(O)=C1/C(C)=NC2=C(C(=O)CC(C)(C)C2)C1c1ccc(SC)cc1 (stereo not drawn) | -1.32
O=C(CSc1nc2ccccc2[nH]1)Nc1ccccn1 | 1.42
O=C(Nc1ccc2ccccc2c1)c1ccc([N+](=O)[O-])cc1Cl | -4.87
CCNC(=O)/C(=C\c1ccco1)NC(=O)c1cccc(Br)c1 | 2.51
Cc1ccc(NC(=O)NCc2noc3ccccc23)nc1 | -3.48
NS(=O)(=O)c1ccc(CCNC(=O)CCCCCNc2nc(S)nc3ccccc23)cc1 | 1.09
CC(C)CNc1nc(Oc2ccc(OCC(N)=O)nn2)nc(N(C)C)n1 | -4.91
Cc1cc2nc3s/c(=C/c4ccccc4F)c(=O)n3c2cc1C | 6.66
O=S1(=O)CC2(N3CCOCC3)CCCC21 (stereo not drawn) | -1.85
NS(=O)(=O)c1ccc(CCNC2CC(=O)N(c3ccc(OC(F)(F)F)cc3)C2=O)cc1 (stereo not drawn) | -21.3
Cc1ccc2nc(/N=C(\N)NC(=O)c3ccccc3)nc(C)c2c1 | 7.1
O=C(c1cccc(F)c1)N1CCN(C(=O)c2ccco2)CC1 | -2.89
O=C(Nc1cccc(C(F)(F)F)c1)[C@@H]1C2C=CC(C2)[C@@H]1C(=O)O (stereo partly drawn) | -1.45
Cn1c(SCC(=O)N2CCOCC2)nc2sc3c(c2c1=O)CCCC3 | -0.0959
COc1ccc(C(=O)CC(Sc2ccccc2N)c2cccc(Br)c2)cc1 (stereo not drawn) | -1.29
COc1ccc(/C=C2\SC(N3CCN(Cc4ccccc4)CC3)=NC2=O)cc1 | -3.49
Cc1nc2nc(NCc3ccc(F)cc3)nn2c(O)c1C | 4.18
COc1cc(Br)cc2cc(S(=O)(=O)c3ccc(C(C)(C)C)cc3)c(=O)oc12 | -4.97
Cc1ccc(-n2nc3c(=O)n(C(C)C(=O)NCc4cccc(Cl)c4)nc(C)c3c2C)cc1 (stereo not drawn) | 2.82
